Results from patent publication US20190375823A1 (Zymeworks, published 2019).
Each block holds one binder with its values, some of them ahead of it.

Tests used:
[1] = target: the molecule itself; assay: LC/MS of AlbuPure-purified AlbuCORE-1
CD19 on Raji B cells = target: T1, CD19 on Raji B cells (UniProt P15391 20-556, limits assumed); assay: FACS on Raji cells (CD19)
T1 construct: whole, on cells; also called Raji CD19 B cells
T1 sequence (looked up): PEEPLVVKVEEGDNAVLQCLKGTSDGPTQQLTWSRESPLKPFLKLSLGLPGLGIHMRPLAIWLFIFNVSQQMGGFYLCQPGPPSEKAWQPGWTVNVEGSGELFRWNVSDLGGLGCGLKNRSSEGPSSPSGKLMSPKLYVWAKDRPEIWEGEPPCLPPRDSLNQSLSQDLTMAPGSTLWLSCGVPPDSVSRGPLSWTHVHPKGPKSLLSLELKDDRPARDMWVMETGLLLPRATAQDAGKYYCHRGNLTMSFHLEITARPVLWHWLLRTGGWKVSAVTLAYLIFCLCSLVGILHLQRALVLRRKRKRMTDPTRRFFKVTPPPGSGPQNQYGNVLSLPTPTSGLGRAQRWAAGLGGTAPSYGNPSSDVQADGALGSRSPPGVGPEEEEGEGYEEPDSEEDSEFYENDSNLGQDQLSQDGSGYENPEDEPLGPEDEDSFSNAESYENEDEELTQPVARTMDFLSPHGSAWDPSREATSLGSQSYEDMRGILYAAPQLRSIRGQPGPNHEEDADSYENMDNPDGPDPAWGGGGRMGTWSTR

B1: Albumin based Transporter polypeptide 2-Ver 2 (ABH2 fragment B, albumin 342:585) (other)
chain: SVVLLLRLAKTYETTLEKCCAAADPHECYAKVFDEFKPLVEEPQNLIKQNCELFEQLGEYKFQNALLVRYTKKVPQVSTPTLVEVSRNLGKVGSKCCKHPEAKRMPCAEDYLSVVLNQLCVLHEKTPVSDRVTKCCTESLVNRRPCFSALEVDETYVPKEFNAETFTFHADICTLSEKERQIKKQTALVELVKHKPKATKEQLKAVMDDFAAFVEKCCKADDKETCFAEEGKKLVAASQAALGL
notes: Other half of ABH2; also called F2; AlbuCORE-1 fragment B
binding result [1]: no binding

Kd (CD19 on Raji B cells): 107 nM
B2: v1092: AlbuCORE_1 (ABH2) with the antiCD3 warhead at the N terminus of fragment 1 and the antiCD19 warhead at the C terminus of fragment 2 (bispecific antibody)
chain 1: not shown
chain 2: SVVLLLRLAKTYETTLEKCCAAADPHECYAKVFDEFKPL[about 200 residues skipped]GGSGDIQLTQSPASLAVSLGQRATISCKASQSVDYDGDSYLNWYQQIPGQPPKLLIYDASNLVSGIPPRFSGSGSGTDFTLNIHPVEKVDAATYHCQQSTEDPWTFGGGTKLEIKGGGGSGGGGSGGGGSQVQLQQSGAELVRPGSSVKISCKASGYAFSSYWMNWVKQRPGQGLEWIGQIWPGDGDTNYNGKFKGKATLTADESSSTAYMQLSSLASEDSAVYFCARRETTTVGRYYYAMDYWGQGTTVTVSS
notes: scFvs adopted from blinatumomab; also called anti-CD3xCD19 albumin-based heteromultimer
